# Test results published in the supplement of paper PMC10338343.
# ± gives the standard deviation. The full ranking holds about 5,500 sequences; the median of “pre-steady-state target cleavage rate” is about 0.1, and the highest 2% start at about 0.64. The list shows a part of the results, in another mix than the full data.
# Test system: MIWI (PIWIL1) piRISC loaded with piRNA #2 (30 nt)
# Experiment: pre-steady-state target cleavage rate (min^-1); MIWI and MILI are mouse PIWI proteins and EfPiwi is from a freshwater sponge; tags in brackets are library labels; higher = faster piRNA-guided slicing of the target
# Conditions: guide: piRNA #2 5'p-UUAGGUAACCCAGUAGAUCCAGAGGAAUUC; auxiliary factor: 500 nM mouse GTSF1
# Summary of the method: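 A burst-and-steady-state fit was used to obtain the pre-steady-state cleavage rate. The input data were sequencing reads of uncleaved targets, normalised to depth and to weakly complementary targets, from a […] transcribed, DNA-blocked target RNA library mixed with 1 nM active affinity-purified piRISC holding one synthetic guide, with or without 500 nM GTSF1 partner protein, in HEPES–potassium acetate buffer at 33 °C for 0–8 or 0–960 min. Three trials were pooled and k3 was capped at 0.0001 min^-1.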
row,Sequence,pre-steady-state target cleavage rate
1,CUUUUCCUGUGGAUCUACUGGGUUACGUAA,0.549 ± 0.05
2,CUAAUCCUCUGGAUCUACUGGGUUACCAAA,0.506 ± 0.056
3,CUUAAGGUCUGGUUCUACUGCGUUACCUAA,0.189 ± 0.048
4,CUUUUCCUCAGGAUGUACUGGGUUACCUAA,0.468 ± 0.059
5,CAAUUCCUCUGCAUGUACUGGGUUACCUAA,0.526 ± 0.038
6,GAAUUCCUCUGGAUCUACUGGGUUACACUAA,0.631 ± 0.068
7,CAAUCCUCUGGAUCUACUGGGUUACCUAA,0.449 ± 0.075
8,CUAUUCCUCUGGAUCUACUGGGUUACUCUAA,0.2 ± 0.031
9,CAAAUCCUCAGGAUCUACUGGGUUACCUAA,0.754 ± 0.059
10,CUUAAGGAGACCUACUACUGCGAUACCUAA,0.00266 ± 0.0023
11,CUUUUCCUCUGGAUCUACUGGGUUAGGUAA,0.0815 ± 0.019
12,CUAUUCCUGUGGUUCUACUGGGUUACCUAA,0.281 ± 0.022
13,CUUAAGGUCUGGAUCUACUGGGUUACCUGA,0.0684 ± 0.015
14,CUAUUCCUCUGGAUCUACUGGGUUAGCUAA,0.349 ± 0.061
15,CUAUUCCUCUGGAUCUACUGGGUUACACUAA,0.636 ± 0.073
16,GAAUUCCUCUGGAUGUACUGGGUUAGCUAA,0.43 ± 0.062
17,CUUUUCCUCUGGAUCAACUGGGUUACGUAA,0.496 ± 0.045
18,CUUAAGCUCAGGAUCUUCUGGGUUACCUAA,0.141 ± 0.023
19,CUUAAGGUCAGGAUCUACUGGGUAACCUAA,0.00869 ± 0.0069
20,CUUAAGCUCUGGAUCUACUGGGUUACCAUAA,0.163 ± 0.023
21,CUUAAGGUCUGGAUCUACUGGGGUUACCUAA,0.00828 ± 0.003
22,CUUAUCCUCUGCAUCUACUGGGUUACCAAA,0.223 ± 0.04
23,CUUAAGGUGUGGAUCUACUGGGUUAGCUAA,0.0221 ± 0.011

row,Sequence,pre-steady-state target cleavage rate
1,GAAUUCCACUGGAUCUACUGGGUUAGCUAA,0.668 ± 0.12
2,CUUAAGGUGUGCAUCUACUGGGUUACCUAA,0.00997 ± 0.0038
3,CUUAAGGACUGGAUCUUCUGGGUUACGUAA,0.173 ± 0.066
4,CUUUUCCACUGGAUCUACUCGGUUACCUAA,0.083 ± 0.013
5,CUUAAGGACUGGUUCUACUGGGUUACCUAA,0.0936 ± 0.042
6,CAAUUCCUCUGGAUCUACUGGGUUUCCAAA,0.179 ± 0.051
7,CUUAAGGAGAGGAUCUACUGGGUUACCAUA,0.00556 ± 0.0043
8,CUUAACCUCUGGAUCUUCUGGGUUAGCUAA,0.0483 ± 0.011
9,GAAUUCCUCUGGAUCUAUUGGGUUACCUAA,0.177 ± 0.03
10,CUUAAGGAGUGCAUCUACUGGGUUACCUAA,0.00703 ± 0.0036
11,CAAUUCGUCUGGAUCUACAGGGUUACCUAA,0.169 ± 0.016
12,CUUUUCCUCUGGAUCUACUGGGUUACUUAA,0.583 ± 0.057
13,CUUAUCCUCAGGAUCUACUGGGUUACCUUA,0.429 ± 0.069
14,CUUAUCCUCUGGUCUACUGGGUUACCUAA,0.149 ± 0.04
15,GAAUUCCUCUGGUAGUACUGGGUUACCUAA,0.288 ± 0.044
16,CUUAACCUCUGGAUGUACUGCGUUACCUAA,0.559 ± 0.056
17,GAAUUCCUCUGGAACUACUGGGAUACCUAA,0.18 ± 0.032
18,GAAUUCCUCUGGAUCUACUGGGUUAACUAA,0.674 ± 0.059
19,CUUAAGGUCUGGAUCUACUGGGUUCCCUAA,0.107 ± 0.02
20,CUUAACCUCUGGAACUACUGGGUUACCUUA,0.205 ± 0.024
21,CUAUUCCUCUGGAUCUACUGGGUUAGCUUA,0.169 ± 0.037
22,CUUAUGCUCUGGAUCUACUCGGUUACCUAA,0.0442 ± 0.0085
23,CAAUUCCUGUCGAUCUACUGGGUUACCUAA,0.564 ± 0.053

row,Sequence,pre-steady-state target cleavage rate
1,CAAUUCCUCACGAUCUACUGGGUUACCUAA,0.784 ± 0.05
2,CUUAAGGAGUGGAUCUACUCGGUUACCUAA,0.0154 ± 0.011
3,CUUAAGGACUGGCAUCUACUGGGUUACCUAA,0.069 ± 0.017
4,CUUAUCCUCUGGAUCUACUGGGCUACCUAA,0.136 ± 0.025
5,CUUAUCCUGUGGAUCUUCUGGGUUACCUAA,0.226 ± 0.054
6,CUUUUGCUCUGGAUCUACUGGGUUACCUUA,0.111 ± 0.021
7,CUUUUCCUCUGGAUCUACUGGGUUAACUAA,0.396 ± 0.069
8,CUAUUCCUCUGGAUCUACUGGCGUUACCUAA,0.005 ± 0.0032
9,CUUAUCCUCUGGAUCUAGUGGGUAACCUAA,0.0406 ± 0.0091
10,CUUAAGGAGACGUUCUACUGGGAUACCUAA,< 0.0001
11,CUUAAGGAGUGGAUCUACUGGGUUACUCUAA,0.0304 ± 0.0093
12,CUUAAGGAGUGGAUCUAGUGCGUUACCUAA,0.00413 ± 0.0024
13,GAAUUCCACUGGAUCUACAGGGUUACCUAA,0.407 ± 0.026
14,CUUAAGGAGACCUAGAUGACGGUUAACCUAA,< 0.0001
15,CUUAUGCUCUGGAUGUACUGGGUUACCUAA,0.244 ± 0.02
16,CUUAUCCUCUGGAUCUACUGGGUUAGCUUA,0.252 ± 0.06
17,CUUUUCGUCUGGAUGUACUGGGUUACCUAA,0.0411 ± 0.024
18,CUUUUCCACUGGAUCUACUGCGUUACCUAA,0.581 ± 0.057
19,CAAUUCCUCUGGAUGUACUGGGUUACCAAA,0.466 ± 0.062
20,CUUUUCCUCUGGAACUACUGGGAUACCUAA,0.0888 ± 0.018
21,CUUAAGCUCUGGUUCUACAGGGUUACCUAA,0.22 ± 0.018
22,CUUAAGCUCUGGAUCUAUUGGGUUACCUAA,0.0482 ± 0.0067
23,GAAUUCCUCUGGAUCUACUCGGAUACCUAA,0.0217 ± 0.0077

row,Sequence,pre-steady-state target cleavage rate
1,CUAUUCCUCUGGAUCUACUGGGUUUGGAUA [g7:g28:cont:t1A],0.00737 ± 0.0041
2,CUUAACCUCUGGAUCUACAGGGUUAGCUAA,0.0376 ± 0.0069
3,CUUAAGCUGUGGAUCUACUGGGUUACCAAA,0.0319 ± 0.022
4,CUUAUCCUCUGGAUCUACUGGGAUACGUAA,0.241 ± 0.037
5,CUUAAGGUCUGGAUCUUCUGGGUUACCUAA,0.226 ± 0.036
6,CUAUUCCUCUGGAUCUACUGGGUUACCUGAA,0.365 ± 0.12
7,CAAUUCCUCUGGAUCUAAUGGGUUACCUAA,0.246 ± 0.032
8,CUUAAGGUGUGGAUCUACAGGGUUACCUAA,0.0388 ± 0.0057
9,CUUAAGGUCUGGAUCUACUGGGUUACGUUA,0.149 ± 0.025
10,CAAUUCCUCAGGAUCUAGUGGGUUACCUAA,0.205 ± 0.024
11,CUUAACCUCUGGAUCUACUGGGAUACCUAA,0.168 ± 0.024
12,CUUUUCCUCUGGAUCUACUCGCUUACCUAA,0.00487 ± 0.0032
13,CUUAUGCUCUGGAACUACUGGGUUACCUAA,0.262 ± 0.029
14,CUUAACCUCUGGAUCAACUGGGUUACCUUA,0.187 ± 0.023
15,CUUUACCUCUGGAUGUACUGGGUUACCUAA,0.518 ± 0.034
16,CUUAACCUCUGGAUCUACUGGGUUUACCUAA,0.221 ± 0.029
17,CUUAAGCUCUGGAUCUUCUCGGUUACCUAA,0.0206 ± 0.0076
18,GAAAUCCUCUGGAUCUACUGGGUUAGCUAA,0.509 ± 0.064
19,CUUAAGCUCUGGUUCUACUGGGUUACCAAA,0.11 ± 0.02
20,CUUAAGGAGUGGAUCUACUGGGUUACCUAC [g2:g21:cont:t1C],0.0825 ± 0.021
21,CUUUUCCUCUGGAUCAACUGGCUUACCUAA,0.0733 ± 0.012
22,CUUUUCCUCUGGAACUACUGGGUAACCUAA,0.19 ± 0.029
